In the supplement of paper PMC10126150:
Sequences with one replicate were seen in a single cluster, so their values are uncertain.

System: ATP
Assay: switch fluorescence ratio, 500 uM ATP over buffer (Cy3 cluster intensity, sum of 5 cycles each) (fold (ratio)); higher = stronger signal-on switching upon ATP binding; sequences stand for … in TCGTCGGCAGCGTCAGATGTGTATAAGAGACAGTTTTTTTTTTTTTTTTTTTTTTTTT…TC
Settings: aptamer strand: ATP DNA aptamer (quencher-CACCTGGGGGAGTATTGCGGAGGAAGG + anchor), 100 nM annealed; ATP concentration: 500 uM; one replicate
Outline: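 Switching-strand clusters labelled with Cy3 on a modified Illumina MiSeq flow-cell were annealed to 100 nM quencher-labelled ATP aptamer, imaged in selection buffer, and re-imaged after 15 min with 500 uM ATP at 22 °C. This was done over five cycles with NaOH stripping and re-annealing in between. The fluorescence ratio is summed target-cycle over summed buffer-cycle Cy3 intensity per cluster, averaged per switch-domain sequence, excluding clusters outside 100-1000 RFU.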
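Further: ATP exposure 15 min at 22 °C before imaging.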

| Sequence | switch fluorescence ratio |
| --- | --- |
| GAAGGGGCTT | 0.959 |
| TGATCTATAT | 0.96 |
| ACCTGAAGA | 1.06 |
| GCTAGGCGAA | 0.999 |
| TAAACCAGAG | 1.17 |
| GCTACACGTG | 0.988 |
| AATTATTGC | 1.01 |
| CTTGAGCAGC | 1.01 |
| CAGATGAGAG | 0.983 |
| TGTTGTTCGT | 0.998 |
| GGCAATTGGG | 1.07 |
| GCCACTGGTA | 1.03 |
| TGCCTTCGGC | 1 |
| GATAAGCGAA | 1.04 |
| ATACATGCGT | 1 |
| ATCCATTCTA | 1.02 |
| GCTAATATGT | 0.972 |
| GAGCATCCAG | 1.03 |
| GGATTTCTGT | 1 |
| AAGGTCGGCT | 0.985 |
| AAAGGGTCCA | 0.988 |
| CGGCGATTAT | 1.04 |
| GCTAAAGGCG | 0.999 |

| Sequence | switch fluorescence ratio |
| --- | --- |
| ACGTAGAGTA | 1.12 |
| ACGGACATCG | 1.07 |
| AACTTGCATA | 1.07 |
| AATAAGCAGG | 1.01 |
| CCGTCGGCGT | 1.04 |
| TTCGTGGTAT | 1 |
| GGCCCCTCTT | 1.03 |
| TTAGGGTCG | 0.973 |
| CACAATGGTT | 1.05 |
| CGTTCCTTGA | 1.01 |
| GCACCTTC | 1.27 |
| GTGACTTGAG | 0.952 |
| TGATACGCCT | 1.03 |
| CCGCTCGGAA | 2.64 |
| CAGTAGACAA | 1.41 |
| ATACAATTCG | 0.972 |
| AAGTCAATTA | 1.02 |
| GGGGAACGTA | 0.932 |
| TTCCCGAAAT | 1.17 |
| ATACGGCCGT | 1.02 |
| CTGACTGGGG | 1 |
| TTGTTGGCA | 1.03 |
| CCAGATGTGG | 0.99 |

| Sequence | switch fluorescence ratio |
| --- | --- |
| GGGTGCGGGT | 0.968 |
| ATAGCCGGAT | 1.11 |
| GAATGAAGTG | 1.05 |
| ATTGAACGTA | 1.03 |
| CTTCTAAGGA | 1.02 |
| CGGCCTAGAC | 1.33 |
| ATTGTTGATT | 1.04 |
| ACTGTCCTCA | 1.05 |
| GGTGTTGTCC | 0.963 |
| AACTTGGTTG | 1.01 |
| TGGGGGCGCT | 1.01 |
| TCACATTACT | 1.37 |
| TGCAAGACAC | 2.03 |
| TTTCTACAAT | 1.07 |
| CAACACTATT | 1 |
| CTTACATTCT | 1.11 |
| CGGCCGTCTG | 0.956 |
| TTCGAGTCGC | 1.05 |
| AGCGGGCTAA | 0.988 |
| ACAACCCCC | 1.47 |
| ATTCACATGC | 1.24 |
| TTCCTCGTAG | 1.24 |
| GTTACCCTCT | 1.02 |

| Sequence | switch fluorescence ratio |
| --- | --- |
| AGGGAACCTC | 0.969 |
| GCCCCTTCAG | 0.995 |
| CACTTCATGG | 1.02 |
| TTCGCTGGGA | 1 |
| GCTAAAAGCA | 0.997 |
| AGGCGGTTT | 1.01 |
| CTGGGACTAC | 1.18 |
| CTGGGTGACG | 1.02 |
| TATTAGCACT | 1.01 |
| ATGCCTCCG | 1.77 |
| CGAAGCCTTC | 2.12 |
| GAAGGGGGCC | 1.03 |
| CTATCGGCTT | 1.07 |
| AGTGGTCTTG | 0.972 |
| TCCATGCCTA | 0.973 |
| CGGCGATAAG | 1.03 |
| AACTCAATTG | 0.967 |
| GGGCGCCTGA | 0.964 |
| GAAAAGGGAA | 0.98 |
| AGGCGTTTTC | 0.967 |
| GAGGCCTGA | 0.974 |
| CCGGGAGCGT | 1.45 |
| TCACTTTGCA | 1.08 |

| Sequence | switch fluorescence ratio |
| --- | --- |
| TGTTGGCTCA | 0.985 |
| AAGAAGCTAT | 0.984 |
| AGTCTTTTAA | 1.03 |
| ATCCAAAACC | 1.08 |
| TGCTTTGTAA | 1 |
| ATGACAAGTG | 1.01 |
| CAGGGCTGCA | 1.01 |
| TACAAGCCGG | 1.01 |
| ATCAAGTTCC | 1.06 |
| CAATAGTAAG | 1.03 |
| ACAGCTCTAA | 1.01 |
| CCTCGTCTGT | 1.48 |
| TTAGCCGACG | 1.04 |
| GAAGAGAGGA | 0.96 |
| GGTGCAGTGG | 1.04 |
| CAAAAGCCCG | 1.02 |
| CGTGCTGG | 0.971 |
| ACTCCTAACG | 1.16 |
| ATAGTTACTG | 1.07 |
| GAGGACTA | 0.99 |
| GGCAGATGCC | 0.99 |
| GGGCATTAGG | 0.985 |
| TCTAGATTTG | 0.977 |

| Sequence | switch fluorescence ratio |
| --- | --- |
| GGCCATCCGC | 1.43 |
| CGCCTCATGT | 1.02 |
| CTTCCATCCC | 1.1 |
| ACGGGTATC | 0.988 |
| ATTGTAGATC | 1.02 |
| CTTGGGCAGC | 1.02 |
| TGGTGAGAAT | 1.04 |
| AGGTTGGCTG | 0.968 |
| TACACTGGTT | 1 |
| GGGGTCTGTA | 0.971 |
| CGGGCACTTG | 0.994 |
| TTGTACGGTA | 1.09 |
| ACAGGAACAC | 1.03 |
| TAGCACGTTT | 0.974 |
| AGCAGCACGA | 1.28 |
| CCACTGCGAG | 1.69 |
| CATAATCTGG | 0.996 |
| CTTTGCAGAT | 1.13 |
| TCAACGAGCT | 1.01 |
| TTCAGTTCTG | 0.981 |
| GACCGATGCG | 0.999 |
| ACTAGTGACA | 1.04 |
| TTTAGTCTGG | 0.988 |

| Sequence | switch fluorescence ratio |
| --- | --- |
| GGGTCCGGAA | 1.04 |
| GGCAAGGGGC | 1.02 |
| TAACCTAGTG | 0.978 |
| AATCGGGTAA | 1.01 |
| TCATAGGGTA | 0.989 |
| GCATTAGAGT | 1.01 |
| CCGATCAGGA | 0.979 |
| GGCCGAGTTG | 0.98 |
| GAACCTGGCT | 1.07 |
| GACTGCGTTA | 0.996 |
| TGGCAACTTG | 1.06 |
| TGGTGACTAA | 0.943 |
| GAGGCAAAAA | 1.29 |
| AAAGGGTCTA | 0.988 |
| ATGTACCATA | 1.03 |
| TACCCCGTTT | 0.989 |
| CTGTGCGTGC | 1.09 |
| TTGCTTGGAT | 0.982 |
| TAGTATCTTA | 0.993 |
